PubChem BioAssay (NCATS)
Where “and” joins values, the source holds several entries; their conditions need not be identical. Identical values can stand only once. Inconclusive means that the source gave no clear call. Such entries were picked first, then a sample of the others. For part of these data: Where the call is inconclusive, the potency comes from a doubtful curve fit. Some compounds were tested as several samples or in several runs, with calls that do not always agree. Calls of active or inactive are those of the source. Calls follow the shape of the dose curve; as a rule, active = well fitted curve in the direction sought with a large enough effect; inconclusive = small, poorly fitted or top-dose-only effect, or another doubt; inactive = no such curve, though single readings can be large; an effect the other way counts as inactive or inconclusive.

Assays:
[1] = P-glycoprotein substrates identified in KB-8-5-11 adenocarcinoma cell line, qHTS therapeutic library screen (AID 1346987); also: nearly all actives have a fitted effect of over 65% in size; also: potency is read from the fitted curve at half-maximal effect
In short: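 Steps: plate 500 KB-8-5-11 cells/well in DMEM + 10% FCS (colchicine removed); pin compounds in dose-response; incubate 72 h, 37 degree C, 5% CO2; add CellTiter-Glo, 5 min; read luminescence.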

[2] = Primary qHTS for small molecule stabilizers of the endoplasmic reticulum resident proteome: Secreted ER Calcium Modulated Protein (SERCaMP) assay (AID 1508630); details: SH-SY5Y GLuc-SERCaMP (Gaussia luciferase released on ER calcium loss) secretion, thapsigargin, luminescence; activity change, negative = inhibition: at 38.4 µM (top of the series); also: potency is read from the fitted curve at half-maximal effect
In short: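 GLuc-SERCaMP-expressing SH-SY5Y cells, pretreated 16 h with compound, are challenged with thapsigargin to empty ER calcium stores; after 4 h, coelenterazine is added directly to the medium and luminescence is imaged.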

[3] = Primary qHTS for inhibitors of nuclear receptor binding SET domain protein 2 (NSD2) in an isogenic RCH-ACV NSD2 p.E1099K mutant (9B) (AID 1645876); also: nearly all actives have a fitted effect of over 70% in size; also: potency is read from the fitted curve at half-maximal effect
[4] = Primary qHTS for inhibitors of nuclear receptor binding SET domain protein 2 (NSD2) in an RCH-ACV wild type WT cells (2C) (AID 1645877); details: activity change, negative = cell killing: at 44.9 µM (top of the series); also: nearly all actives have a fitted effect of over 70% in size; also: potency is read from the fitted curve at half-maximal effect; as to activity change, negative = cell killing: % is scaled to controls: 0 for no effect and ±100 for the full control effect
[5] = system: CRL-7250; assay: Cytotoxic Profiling of Annotated Libraries Using Quantitative High-Throughput Screening (AID 1296008); details: Five cell lines viability, CellTiter-Glo ATP luminescence, 48-72 h; max response: active compounds read low; also: nearly all actives have a fitted effect of over 60% in size; also: potency is read from the fitted curve at half-maximal effect
In short: (§1)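 Cytotoxicity was measured as CellTiter-Glo ATP luminescence, read after 10 min at room temperature. Compound treatment of the cells lasted 48 or 72 hr at 37 degrees Celsius in a qHTS format.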

[6] = system: HEK293; assay: as above; details: Five cell lines viability, CellTiter-Glo ATP luminescence, 48-72 h; max response: active compounds read low
In short: as §1

[7] = system: WaGa; assay: qHTS assay to identify novel small-molecules to repurpose for Merkel cell carcinoma treatment (AID 1296009); details: MCC and control cell lines, CellTiter-Glo viability, 72 h; series mostly up to 46 µM; also: nearly all actives have a fitted effect of over 60% in size; also: potency is read from the fitted curve at half-maximal effect; as to activity change, negative = cytotoxicity: % is scaled to controls: 0 for no effect and ±100 for the full control effect
In short: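 72 hr, 37 degree celsius; NPC 8-pt / MIPE 11-pt dose response; compound pinned in DMSO; CellTiter-Glo, 10 min RT, luminescence; normalized to no-cell and DMSO controls.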

[8] = system: CAOV3; assay: Primary qHTS to identify gynecologic anti-cancer compounds using libraries of approved drugs and bioactive compounds (AID 1345084); details: Gynecologic cancer cell panel viability, ATPlite luminescence, 48 h; series mostly up to 57.5 µM; also: nearly all actives have a fitted effect of over 55% in size; also: potency is read from the fitted curve at half-maximal effect; as to activity change, negative = cytotoxicity: % is scaled to controls: 0 for no effect and ±100 for the full control effect
In short: (§2)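 Luminescence from the ATPlite ATP-monitoring reagent indicates viable cell number; lower signal means cytotoxicity. Cells received compound 16 h after seeding and were exposed for 48 h across five concentrations.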

[9] = system: OV90; assay: as above; details: Gynecologic cancer cell panel viability, ATPlite luminescence, 48 h; series mostly up to 57.5 µM
In short: as §2

[10] = Primary fluorescence-based thiol-reactive (MSTI) qHTS assay for identification of artifact compounds. (AID 1845221);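 also: thiol-reactive compounds lower the probe fluorescence signal; nearly all actives have a fitted effect of over 65% in size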
In short: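 Compounds were incubated 1 h at room temperature in the dark with the MSTI probe (4 uM) in PBS pH 7.4, 2% DMSO. Signals were normalized between Acetyl-MSTI and MSTI.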

[11] = system: C33A; assay: Primary qHTS to identify gynecologic anti-cancer compounds using libraries of approved drugs and bioactive compounds (AID 1345084); details: Gynecologic cancer cell panel viability, ATPlite luminescence, 48 h; series mostly up to 57.5 µM; also: nearly all actives have a fitted effect of over 55% in size; also: potency is read from the fitted curve at half-maximal effect; as to activity change, negative = cytotoxicity: % is scaled to controls: 0 for no effect and ±100 for the full control effect
In short: as §2

[12] = system: HeLa; assay: as above; details: Gynecologic cancer cell panel viability, ATPlite luminescence, 48 h; series mostly up to 57.5 µM
In short: as §2

[13] = system: JEG-3; assay: as above; details: Gynecologic cancer cell panel viability, ATPlite luminescence, 48 h; series mostly up to 57.5 µM
In short: as §2

[14] = system: SKOV3; assay: as above; details: Gynecologic cancer cell panel viability, ATPlite luminescence, 48 h; series mostly up to 57.5 µM
In short: as §2

[15] = system: Hek293T; assay: as above; details: Gynecologic cancer cell panel viability, ATPlite luminescence, 48 h, control line for the selectivity index; series mostly up to 57.5 µM
In short: as §2

[16] = system: CASKI; assay: as above; details: Gynecologic cancer cell panel viability, ATPlite luminescence, 48 h; activity change, negative = cytotoxicity: at 57.5 µM (top of the series)
In short: as §2

[17] = system: Es-2; assay: as above; details: Gynecologic cancer cell panel viability, ATPlite luminescence, 48 h; series mostly up to 57.5 µM
In short: as §2

[18] = system: Tov-21-G; assay: as above; details: Gynecologic cancer cell panel viability, ATPlite luminescence, 48 h; activity change, negative = cytotoxicity: at 57.5 µM (top of the series)
In short: as §2

[19] = system: PA-1; assay: as above; details: Gynecologic cancer cell panel viability, ATPlite luminescence, 48 h; series mostly up to 57.5 µM
In short: as §2
Tags tell the direction and shape of the fitted curve.

CN1CCC(N(Cc2cccs2)c2ccccc2)CC1
inconclusive: Potency [1] 20.6 µM [inhibitor, partial curve] | Potency [2] 22.4 µM [inhibitor, partial curve, poor fit] | Potency [3] 25.8 µM [inhibitor, single point] | Potency [4] 36.5 µM [inhibitor, partial curve, poor fit] | Potency [5] 29.9 µM [inhibitor, single point] | Potency [6] 23.1 µM [inhibitor, partial curve] | Potency [9] 12.6 µM [cytotoxic, partial curve]
inactive: Potency [7] | Potency [8]

COc1cccc2c1C(=O)c1c(O)c3c(c(O)c1C2=O)C[C@@](O)(C(=O)CO)C[C@@H]3O[C@H]1C[C@H](N)[C@H](OC2CCCCO2)[C@H](C)O1 (stereo not given in full)
active: Potency [1] 5.26 µM | Potency [3] 93.4 nM and 2.63 µM | Potency [6] 0.332 µM | Potency [7] 1.66 µM
inconclusive: Potency [5] 1.05 µM [inhibitor, full curve, poor fit]

Nc1nc(NCCNc2ncc(-n3ccnc3)c(-c3ccc(Cl)cc3Cl)n2)ccc1[N+](=O)[O-]
inactive: Potency [10] | Potency [7] | Potency [9] | Potency [14]
active: Potency [5] 5.8 µM
inconclusive: Potency [1] 20.6 µM [inhibitor, single point] | Potency [6] 20.6 µM [inhibitor, single point] | Potency [11] 2.82 µM [rising, full curve, poor fit] | Potency [12] 28.2 µM [rising, partial curve, poor fit] | Potency [13] 3.16 µM [rising, partial curve]

O=C(OCC(O)CO)c1ccccc1Nc1ccnc2c(C(F)(F)F)cccc12 (stereo not given)
inconclusive: Potency [3] 23.7 µM [inhibitor, single point] | Potency [4] 18.8 µM [inhibitor, single point] | Potency [5] 33.5 µM [inhibitor, single point] | Potency [6] 29.9 µM [inhibitor, single point] | Potency [14] 0.141 µM [rising, single point]
inactive: Potency [7]

Nc1nc2ccccc2n1Cc1ccc(F)cc1
inactive: Potency [14]
inconclusive: Potency [3] 16.8 µM [inhibitor, single point] | Potency [4] 11.9 µM [inhibitor, partial curve] | Potency [5] 29.9 µM [inhibitor, single point] | Potency [6] 33.5 µM [inhibitor, single point] | Potency [7] 23.7 µM [inhibitor, single point] | Potency [15] 28.2 µM [cytotoxic, single point]

O=[N+]([O-])c1cncn1CCN1CCOCC1
inconclusive: Potency [2] 2 µM [inhibitor, full curve, poor fit] | Potency [8] 35.5 µM [rising, partial curve, poor fit]
inactive: Potency [4] | outcome [5] | max response [6] 3.5% | Potency [7]

CN(C(=O)CN(CCO)CC(=O)N(C)C(C)(C)Cc1ccccc1)C(C)(C)Cc1ccccc1
inactive: Potency [13]
active: Potency [4] 5.31 µM
inconclusive: Potency [1] 14 µM [inhibitor, single point] | Potency [2] 10 µM [inhibitor, single point] | Potency [5] 33.5 µM [inhibitor, single point] | Potency [6] 26.6 µM [inhibitor, single point] | Potency [7] 23.7 µM [inhibitor, single point] | Potency [8] 35.5 µM [cytotoxic, single point]

NS(=O)(=O)c1cc2c(cc1Cl)NC(C1CC3C=CC1C3)NS2(=O)=O (stereo not given)
inconclusive: Potency [5] 33.5 µM [inhibitor, single point]
inactive: Potency [3] | outcome [6] | Potency [16]

N#C/C(=C1/SC[C@@H](c2ccc(Cl)cc2Cl)S1)n1ccnc1
active: Potency [3] 13.3 µM
inconclusive: Potency [1] 20.6 µM [inhibitor, partial curve] and 25.9 µM [inhibitor, single point] | Potency [2] 12.6 µM [inhibitor, single point] | Potency [5] 29.9 µM [inhibitor, single point] | Potency [6] 21.1 µM [inhibitor, single point] | Potency [7] 33.5 µM [inhibitor, single point] | Potency [9] 31.6 µM [cytotoxic, single point]

CCCCOCCOCCOCc1cc2c(cc1CCC)OCO2
active: Potency [5] 61.8 µM
inconclusive: Potency [1] 28.2 µM [inhibitor, partial curve] | Potency [4] 21.9 µM [inhibitor, partial curve] | Potency [6] 24.6 µM [inhibitor, partial curve] and 33.5 µM [inhibitor, single point] | Potency [7] 69.3 µM [inhibitor, partial curve, poor fit] | Potency [9] 28.2 µM [cytotoxic, partial curve, poor fit] | Potency [14] 5.62 µM [cytotoxic, partial curve, poor fit]
inactive: Potency [2] | Potency [17] | Potency [18]

COc1ccccc1OC(=O)Oc1ccccc1OC
inactive: outcome [5] | max response [6] -4.48% | Potency [14]

COc1cc2c(Nc3ccc(Cl)c(Cl)c3F)ncnc2cc1OCC1C[C@@H]2CN(C)C[C@H]2C1
active: Potency [1] 18.7 µM | Potency [5] 9.35 µM | Potency [6] 4.69 µM

O=C(O)CC(O)C(=O)O (stereo not given)
inactive: Potency [1] | max response [5] -10.5% | outcome [6] | Potency [7] | Potency [11] | Potency [9] | Potency [14]
inconclusive: Potency [2] 3.55 µM [inhibitor, partial curve, poor fit]

Cc1ccccc1C(OCCN(C)C)c1ccccc1 (stereo not given)
inactive: Potency [1] | Potency [11]
inconclusive: Potency [2] 8.91 µM [inhibitor, partial curve, poor fit] and 11.2 µM [inhibitor, partial curve, poor fit] | Potency [5] 33.5 µM [inhibitor, single point] | Potency [6] 21.1 µM [inhibitor, single point] and 37.2 µM [inhibitor, single point] | Potency [9] 1 µM [cytotoxic, full curve]

C[N+]1(C)CCC(=C(c2ccccc2)c2ccccc2)CC1
inactive: max response [5] -1% | Potency [8] | Potency [17]
inconclusive: Potency [3] 29.9 µM [inhibitor, single point] | Potency [4] 26.6 µM [inhibitor, single point] | Potency [6] 5.96 µM [inhibitor, full curve] | Potency [7] 33.5 µM [inhibitor, single point]

CC(C)CCCC(C)CCCC(C)CCCCC(C)CCCC(C)CCCC(C)C (stereo not given)
inactive: Potency [2] | Potency [3] | outcome [5] | max response [6] -6.17% | Potency [15] | Potency [14]

COc1ccc(-n2nc(CCC(=O)N(C)O)cc2-c2ccc(Cl)cc2)cc1
active: Potency [14] 31.6 µM
inconclusive: Potency [5] 21.1 µM [inhibitor, single point] | Potency [6] 33.5 µM [inhibitor, single point] | Potency [7] 18.8 µM [inhibitor, single point] | Potency [17] 11.2 µM [cytotoxic, partial curve] | Potency [13] 31.6 µM [cytotoxic, single point] | Potency [9] 39.8 µM [cytotoxic, single point] | Potency [19] 25.1 µM [cytotoxic, single point] | Potency [18] 39.8 µM [cytotoxic, single point]

CCC(=O)Oc1ccc2c(c1)CC[C@@H]1[C@@H]2CC[C@@]2(C)[C@H]1C[C@@H](OC(=O)CC)[C@@H]2OC(=O)CC
inconclusive: Potency [3] 29.9 µM [inhibitor, single point] | Potency [4] 18.8 µM [inhibitor, single point] | Potency [6] 33.5 µM [inhibitor, single point] | Potency [7] 29.9 µM [inhibitor, single point] | Potency [9] 39.8 µM [cytotoxic, single point]
inactive: Potency [2] | max response [5] -3.71% | Potency [8]

CC(=O)Nc1ccc(CC(=O)O)cc1
inconclusive: Potency [2] 7.94 µM [inhibitor, partial curve, poor fit] | Potency [5] 23.7 µM [inhibitor, single point]
inactive: max response [6] 0.0311% | Potency [9]

O=c1[nH]c(=O)n([C@H]2C[C@H](O)[C@@H](CO)O2)cc1Br
inconclusive: Potency [2] 31.6 µM [inhibitor, single point] | Potency [6] 16.8 µM [inhibitor, partial curve] | Potency [7] 15 µM [inhibitor, partial curve] | Potency [8] 1.58 µM [cytotoxic, single point]
inactive: Potency [1] | max response [5] 0.0744% | Potency [11] | Potency [15]
active: Potency [3] 0.841 µM
